Experimental data taken from PMC5473854, “Structure of the human TRiC/CCT Subunit 5 associated with hereditary sensory neuropathy” (Scientific Reports, 2017).

Molecular target: human TRiC/CCT subunit 5 (CCT5), homo-oligomeric complex (human) (UniProt P48643)
Experiment: crystal structure; crystallised in complex with 5.0 mM ADP, closed state; sitting-drop vapor diffusion; 0.1 M sodium acetate, 0.04 M citric acid, 0.06 M Bis-Tris propane pH 6.4, 25% (w/v) PEG 400; space group P 4 21 2, 4 subunits per asymmetric unit

## human TRiC/CCT subunit 5 (CCT5), homo-oligomeric complex (a stretch of the chain, sequence not shown) (natural protein; other documents disagree on this pair)
  stoichiometry N: 16 subunits
